# Data: PubChem BioAssay AID2675 (National Center for Advancing Translational Sciences (NCATS), 2010)
# Out of some 280,000 compounds screened, about 100 (0.036%) were called active. Inconclusive results, whose numbers are uncertain, are shown with a selection of clear calls. Calls come from the whole dose curve; as a rule, active = well fitted inhibition curve with a large enough effect in the signal ratio, with a control signal flat (not every such curve was filed as active); inconclusive = small, poorly fitted or top-dose-only effect, or effect the other way, or a change in a side signal; inactive = no such curve, though single readings can be large or run the other way; the % refers to the signal ratio. Potencies beside an inconclusive call are fits to weak or partial responses and may not hold up. “Side channel” marks fits to a control or component signal instead of the main read-out.
# Target: Muscleblind-like protein 1 (Homo sapiens) (UniProt Q9NR56)
# Assay: qHTS Assay for Inhibitors of MBNL1-poly(CUG) RNA binding
# Conditions: TR-FRET MBNL1-His/biotin-(CUG)12 binding, 665/545 ratio; series mostly up to 57.5 µM
# Summary of the method: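 MBNL1-His + Biotin-(CUG)12, cpd titration 92 nM–58 uM; Tb anti-His Ab 0.055 ng/ul, SA-XL665 5 nM (final); 60 min RT; ratiometric 665/545 nm, Ex 340 nm; normalized to buffer and full-complex controls.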
# Potency is the fitted concentration of half-maximal effect; tags give direction and shape of the fitted curve or compound fluorescence and quenching.
# Chain of UniProt Q9NR56 (Q9NR56 whole entry, looked up): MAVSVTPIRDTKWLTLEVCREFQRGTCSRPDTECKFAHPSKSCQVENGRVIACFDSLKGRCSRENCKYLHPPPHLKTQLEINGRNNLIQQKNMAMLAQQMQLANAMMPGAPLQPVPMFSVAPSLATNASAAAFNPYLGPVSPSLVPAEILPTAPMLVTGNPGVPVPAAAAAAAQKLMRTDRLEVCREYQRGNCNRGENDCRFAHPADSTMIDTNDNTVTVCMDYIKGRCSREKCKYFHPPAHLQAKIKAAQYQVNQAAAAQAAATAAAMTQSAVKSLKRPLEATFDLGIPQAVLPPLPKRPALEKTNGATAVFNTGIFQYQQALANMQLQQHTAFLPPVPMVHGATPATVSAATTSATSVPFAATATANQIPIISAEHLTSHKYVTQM
row,Compound,Potency
1,COc1ccc(CC(=O)N/N=C/c2sccc2C)cc1,"inconclusive: 28.2 µM [quencher, side channel, single point]"
2,COc1ccc(CN=CC2=C(O)CNC2=O)cc1,"inconclusive: 79.4 µM [inhibitor, partial curve]"
3,COc1ccc(C=NC(CO)C(O)c2ccc([N+](=O)[O-])cc2)cc1 (centres undefined),"inconclusive: 20 µM [quencher, side channel, partial curve]"
4,O=C(Nc1ccc(F)cc1)c1ccc(CSc2ccc(Cl)cc2)o1,inactive
5,CCOc1ccccc1Nc1nc(N)nc(CN(C)C2CCCCC2)n1,inactive
6,Cc1cccc2c(CCNC(=O)c3ccc([N+](=O)[O-])cc3)c[nH]c12,"inconclusive: 31.6 µM [quencher, side channel, partial curve]"
7,Cc1ccc(N2C(=O)[C@@H]3C(C(=O)CCN4C(=O)c5ccccc5C4=O)=NN[C@@H]3C2=O)cc1,inactive
8,COc1cc2c(cc1OC)C(c1ccc(-c3ccccc3Cl)o1)=NCC2,"inconclusive: 15.8 µM [quencher, side channel, partial curve]"
9,CSc1ccc(-c2sc(Nc3ccccc3)n[n+]2-c2ccccc2)cc1,inactive
10,CCc1ccccc1NC(=O)C1CCCN1S(=O)(=O)c1ccc(-c2ccc(=O)[nH]n2)s1 (centres undefined),"inconclusive: 25.1 µM [quencher, side channel, partial curve]"
11,COCCNC(=O)CSc1nc2nn(-c3ccccc3)c(=O)c-2c2n1CCCCC2,"inconclusive: 28.2 µM [quencher, side channel, partial curve]"
12,CCC1CCCCN1CCCNC(=O)CNC(=O)c1nn(-c2ccc(OC)cc2)c(=O)c2ccccc12 (centres undefined),"inconclusive: 28.2 µM [quencher, side channel, single point]"
13,Cc1ccc(-n2cc(CN3CCC(CO)(Cc4cccc(C(F)(F)F)c4)CC3)cn2)cc1,inactive
14,N#C/C(=C\c1ccc([N+](=O)[O-])o1)C(=O)Nc1ccc(F)cc1,"inconclusive: 15.8 µM [quencher, side channel, partial curve]"
15,CC(C(=O)N1CCN(c2ccccc2)CC1)c1ccc([N+](=O)[O-])cc1 (centres undefined),"inconclusive: 25.1 µM [quencher, side channel, partial curve]"
16,CC(C)(C)c1ccc(-n2nc(C#N)c(Cl)cc2=O)cc1,"inconclusive: 15.8 µM [quencher, side channel, partial curve]"
17,COc1ccc(NC(=O)C(=O)NCCN2CCN(C(=O)c3cccc(Br)c3)CC2)cc1,inactive
18,Clc1ccc(/C=N/NC(=Nc2ccccc2)c2ccccn2)c(Cl)c1,inactive
19,CC1CCC(N2CCN(c3ccc([N+](=O)[O-])cc3)CC2)CC1 (centres undefined),"inconclusive: 25.1 µM [quencher, side channel, partial curve]"
20,O=C1C(=O)N(c2ccc(O)cc2)C(c2ccccc2[N+](=O)[O-])/C1=C(\O)c1ccccc1 (centres undefined),"inconclusive: 22.4 µM [quencher, side channel, partial curve, poor fit]"
21,CC(=O)Nc1ccc(Nc2ccc(S(=O)(=O)C(F)(F)F)cc2[N+](=O)[O-])cc1,"inconclusive: 44.7 µM [quencher, side channel, partial curve, poor fit]"
22,CCOCCn1cnc2sc(C(=O)NCC(=O)OCC)c(C)c2c1=O,"inconclusive: 8.91 µM [quencher, side channel, single point]"

row,Compound,Potency
1,FC(F)(F)c1cc(CCN2C(=S)NC[C@@H]2c2ccccc2)cc(C(F)(F)F)c1,inactive
2,CCOc1ccc(NC(C(=O)Nc2cccc(C(C)=O)c2)c2ccccc2)cc1 (centres undefined),"inconclusive: 0.126 µM [fluorescent, side channel, full curve, poor fit]"
3,COc1ccc(C2=NS(=O)(=O)N(C)C(C(=O)NCc3ccccn3)=C2)cc1,"inconclusive: 15.8 µM [quencher, side channel, partial curve]"
4,COc1cccc(NC(=O)NC2CCN(CC(=O)Nc3ccccc3[N+](=O)[O-])CC2)c1,"inconclusive: 11.2 µM [quencher, partial curve]"
5,O=C(Cc1cccs1)Nc1cccc([N+](=O)[O-])c1,"inconclusive: 15.8 µM [quencher, side channel, partial curve]"
6,Cc1cc(C(C)(C)C)cc(C)c1CC1=NCCN1,inactive
7,O=C(c1ccc(F)cc1)C1CCN(C(=S)Nc2ccc(F)cc2)CC1,inactive
8,NC(=S)c1cc2cc(Cl)ccc2oc1=O,"inconclusive: 3.55 µM [quencher, side channel, full curve]"
9,CCNc1oc(-c2cccc3ccccc23)nc1C#N,inactive
10,Cc1cc(-n2c(C)cc(C(=O)COc3ccc([N+](=O)[O-])cc3)c2C)no1,"inconclusive: 0.141 µM [quencher, side channel, full curve, poor fit]"
11,C/C=C/C=C/C(=O)[C@@H]1[C@@H]([C@]2(C)OC(=O)C(C)=C2O)[C@H]2/C(=C(O)/C=C/C=C/C)C(=O)[C@]1(C)C(=O)C2(C)O (some centres undefined),inactive
12,Cc1cc(C)n(CCC(=O)N=Nc2c(O)[nH]c3ccc(Br)cc23)n1,"inconclusive: 10 µM [quencher, side channel, partial curve]"
13,CS(=O)(=O)Nc1ccc(C2=NN(C(=O)c3ccco3)C(c3cccc(F)c3)C2)cc1 (centres undefined),"inconclusive: 20 µM [quencher, side channel, partial curve]"
14,Cc1oc2c(c1C(=O)NCc1cccnc1)C(=O)c1ccccc1C2=O,"inconclusive: 3.55 µM [quencher, side channel, full curve]"
15,c1ccc(-c2nnc(N3CCOCC3)nc2-c2ccccc2)cc1,"inconclusive: 20 µM [quencher, side channel, partial curve]"
16,O=C(NCc1ccco1)c1cnc2sccn2c1=O,"inconclusive: 28.2 µM [quencher, side channel, single point]"
17,CCN(CCNS(=O)(=O)c1ccc2[nH]c(=O)sc2c1)c1ccccc1,"inconclusive: 39.8 µM [quencher, side channel, single point]"
18,CCOc1ccc(S(=O)(=O)N(C)CC(=O)N2CCCC2)cc1,inactive
19,O=[N+]([O-])c1ccc(CN2CCCCCC2)s1,"inconclusive: 10 µM [quencher, partial curve]"
20,COCCCNc1nc2ccccc2nc1NS(=O)(=O)c1ccccc1,inactive
21,COC(=O)Cn1cc(/C=C/c2cc[n+](C)cc2)c2ccccc21,"inconclusive: 14.1 µM [quencher, side channel, partial curve]"
22,O=C(O)c1ccccc1C(=O)Nc1cccc([N+](=O)[O-])c1,"inconclusive: 14.1 µM [quencher, side channel, partial curve]"

row,Compound,Potency
1,Cc1ccc(Sc2cc(C(=O)NCCN(C)C)c3ccccc3n2)cc1,inactive
2,O=C(O)c1ccccc1Nc1ccc([N+](=O)[O-])cc1C(=O)O,"inconclusive: 22.4 µM [quencher, side channel, partial curve]"
3,O=C(O)CC1S/C(=N/N=C/c2ccc([N+](=O)[O-])cc2)N(c2ccc(O)cc2)C1=O (centres undefined),"inconclusive: 15.8 µM [quencher, partial curve]"
4,CC1=NNC(=O)/C1=C\c1cn(-c2ccccc2)nc1-c1cccs1,inactive
5,Cc1ccc(CNC(=O)C2CC(c3cccc([N+](=O)[O-])c3)=NO2)o1 (centres undefined),"inconclusive: 12.6 µM [quencher, side channel, partial curve]"
6,CCOC(=O)CCSCC(=O)N1N=C(c2cccs2)CC1c1ccc(C)cc1 (centres undefined),inactive
7,O=C(N/N=C/c1c[nH]c2ccccc12)c1cc(Cl)ccc1O,"inconclusive: 31.6 µM [quencher, side channel, single point]"
8,CC(=O)c1sc2nc(-c3cccs3)cc(C(F)(F)F)c2c1N,inactive
9,COc1ccc(-n2ncc3c(=O)n(CC(=O)NC(C)C)cnc32)cc1,inactive
10,CCCCN(C)CC(O)Cn1cc(/C=C/C(=O)c2ccc(OCC)cc2)c2ccccc21 (centres undefined),inactive
11,COc1ccc(COC(=O)NNC(=O)c2ccc(OC)cc2)cc1,"inconclusive: 0.708 µM [quencher, side channel, single point]"
12,O=C(O)Cn1c(SCCOc2ccccc2F)nc2ccccc21,inactive
13,c1coc(-c2nnc(-c3ccco3)nn2)c1,"inconclusive: 10 µM [quencher, side channel, partial curve]"
14,CC(C)OC(=O)CSc1nnc(COc2ccc([N+](=O)[O-])cc2)n1C,"inconclusive: 31.6 µM [quencher, side channel, single point]"
15,COc1ccnc(CSC(N)=Nc2ccccc2OC)c1,inactive
16,CCOC(=O)n1c(=O)n(Cc2ccc(Cl)cc2Cl)c2ccccc21,inactive
17,CCCCN1C(=O)/C(=C2\SC(N3CCCCC3)=NC2=O)c2ccccc21,"inconclusive: 12.6 µM [quencher, side channel, partial curve]"
18,Cc1ccc(C)c(N2CCN(S(=O)(=O)c3ccc4c(c3)CCN4C(=O)CCC(=O)O)CC2)c1,inactive
19,Cc1ccccc1NS(=O)(=O)c1ccc(NC(=O)CSCc2ccc(Br)cc2)cc1,"inconclusive: 39.8 µM [quencher, side channel, single point]"
20,CC1CCCC(C)N1S(=O)(=O)c1ccc(S(=O)(=O)NCc2ccccc2)cc1 (centres undefined),"inconclusive: 100 µM [inhibitor, single point]"
